Measurements as given in the supplement of paper PMC4604168 (melanoma cell lines).
The other results are listed elsewhere or left out. Many values rest on one well or one pass, so single values are uncertain.

Tests used:
Experiment in all cases: cell count relative to DMSO control; melanoma cells; higher = more viable cells
Settings in all cases: library dose: low library concentration; 72 h
MZ2-MEL = tested on: MZ2-MEL
MeWo = tested on: MeWo
RPMI7951 = tested on: RPMI7951
RVH-421 = tested on: RVH-421
SkMel28 = tested on: SkMel28
SkMel2 = tested on: SkMel2
SkMel30 = tested on: SkMel30
UACC62 = tested on: UACC62
SkMel5 = tested on: SkMel5
UACC257 = tested on: UACC257
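Also: cell number obtained by counting DAPI-stained nuclei in high-throughput microscope images with image analysis software, screen run in 1,536-well plates.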

SMILES	cell count (MZ2-MEL) [%]	cell count (MeWo) [%]	cell count (RPMI7951) [%]	cell count (RVH-421) [%]	cell count (SkMel28) [%]	cell count (SkMel2) [%]	cell count (SkMel30) [%]	cell count (UACC62) [%]	cell count (SkMel5) [%]	cell count (UACC257) [%]
CCCS(=O)(=O)Nc1ccc(F)c(C(=O)c2c[nH]c3ncc(Cl)cc23)c1F + C#Cc1cccc(Nc2ncnc3cc(OCCOC)c(OCCOC)cc23)c1 [erlotinib] (first compound 0.08 µM, partner dose 0.8 µM)	84	109	107	77.3	97.7	104	80.4	67.9		
CS(=O)(=O)c1ccc(C(=O)Nc2ccc(Cl)c(-c3ccccn3)c2)c(Cl)c1 [vismodegib] + Cn1cncc1[C@@](N)(c1ccc(Cl)cc1)c1ccc2c(c1)c(-c1cccc(Cl)c1)cc(=O)n2C [tipifarnib] (first compound 1 µM, partner dose 0.01 µM)	105	98.9	127	74.4	101	85	100	90.8	103	83
C=C(c1ccc(C(=O)O)cc1)c1cc2c(cc1C)C(C)(C)CCC2(C)C [Bexarotene] + COc1ccc(Cl)c(Nc2nc3ccccc3nc2NS(=O)(=O)c2cccc(NC(=O)C(C)(C)N)c2)c1 [XL147] (first compound 2 µM, partner dose 0.8 µM)	98.1	93.1	90.8	122	104	86.9	105	110		
CN(c1ncccc1CNc1nc(Nc2ccc3c(c2)CC(=O)N3)ncc1C(F)(F)F)S(C)(=O)=O + O=S(=O)(c1ccccc1)N(CC(F)(F)F)c1ccc(C(O)(C(F)(F)F)C(F)(F)F)cc1 [T0901317] (first compound 0.08 µM, partner dose 1.4 µM)	90.7	92.1	101	58.7	79.8	81.5	86.4	71.9	69.2	51.8
CN(c1ncccc1CNc1nc(Nc2ccc3c(c2)CC(=O)N3)ncc1C(F)(F)F)S(C)(=O)=O + CCCCCCCCCCCC1=C(O)C(=O)C=C(O)C1=O [Embelin] (first compound 0.08 µM, partner dose 1.2 µM)	93.4	99.3	73.9	93.9	88	92.9	119	88.9	91.6	77.2
C=C(c1ccc(C(=O)O)cc1)c1cc2c(cc1C)C(C)(C)CCC2(C)C [Bexarotene] + Oc1cc(-c2nc(-c3ccccc3)[nH]c2-c2ccncc2)ccc1Cl [L779450] (first compound 2 µM, partner dose 0.2 µM)	89.5	98.3	103	106	73	97.2	98.8	74.5	116	103
CS(=O)(=O)c1ccc(C(=O)Nc2ccc(Cl)c(-c3ccccn3)c2)c(Cl)c1 [vismodegib] + COc1ccc(COc2ccc(Cc3cnc(N)nc3N)cc2OC)cc1 [GW2580] (first compound 1 µM, partner dose 1 µM)	102	101	99.7	128	103	113	124	91	122	118
NC1(c2ccc(-c3nc4ccn5c(=O)[nH]nc5c4cc3-c3ccccc3)cc2)CCC1 + CC(C)C[C@H](NC(=O)[C@H](Cc1ccccc1)NC(=O)c1cnccn1)B(O)O [Bortezomib] (first compound 0.4 µM, partner dose 0.001 µM)	91.7	82.4	80.9	75.9	59.4	82.9	71.2	78.7		
C=C(c1ccc(C(=O)O)cc1)c1cc2c(cc1C)C(C)(C)CCC2(C)C [Bexarotene] + Cn1c(Nc2ccc(C(F)(F)F)cc2)nc2cc(Oc3ccnc(-c4ncc(C(F)(F)F)[nH]4)c3)ccc21 [CHIR265] (first compound 2 µM, partner dose 0.08 µM)	84.6	79.9	62.7	87	62	87.8	74.7	68.7		
CS(=O)(=O)c1ccc(C(=O)Nc2ccc(Cl)c(-c3ccccn3)c2)c(Cl)c1 [vismodegib] + Nc1ccn([C@@H]2O[C@H](CO)[C@@H](O)C2(F)F)c(=O)n1 [gemcitabine] (first compound 1 µM, partner dose 0.0004 µM)	105	101	123	118	114	114	110	107		
CS(=O)(=O)c1ccc(C(=O)Nc2ccc(Cl)c(-c3ccccn3)c2)c(Cl)c1 [vismodegib] + C[C@@H](Oc1cc(-c2cnn(C3CCNCC3)c2)cnc1N)c1c(Cl)ccc(F)c1Cl [Crizotinib] (first compound 1 µM, partner dose 0.2 µM)	99.2	93.8	116	99.8	82.8	111	100	98.3		
NC1(c2ccc(-c3nc4ccn5c(=O)[nH]nc5c4cc3-c3ccccc3)cc2)CCC1 + Nc1cccc2c1CN(C1CCC(=O)NC1=O)C2=O [lenalidomide] (first compound 0.4 µM, partner dose 1 µM)	113	101	118	111	85.6	101	110	79.4		
C=C(c1ccc(C(=O)O)cc1)c1cc2c(cc1C)C(C)(C)CCC2(C)C [Bexarotene] + Nc1nc(F)nc2c1ncn2[C@@H]1O[C@H](CO)[C@@H](O)[C@@H]1O [fludarabine] (first compound 2 µM, partner dose 0.2 µM)	89	43.2	57.7	111	76.3	22.9	26.2	84.4		
CS(=O)(=O)c1ccc(C(=O)Nc2ccc(Cl)c(-c3ccccn3)c2)c(Cl)c1 [vismodegib] + COc1ccc(Cl)c(Nc2nc3ccccc3nc2NS(=O)(=O)c2cccc(NC(=O)C(C)(C)N)c2)c1 [XL147] (first compound 1 µM, partner dose 0.8 µM)	94.2	106	108	101	86.6	105	131	84.9		
C=C(c1ccc(C(=O)O)cc1)c1cc2c(cc1C)C(C)(C)CCC2(C)C [Bexarotene] + COCC[n+]1c2c(n(Cc3cnccn3)c1C)C(=O)c1ccccc1C2=O [YM155] (first compound 2 µM, partner dose 0.0004 µM)	65.6	79.6	81	83.6	89.9	99	92	101		
CN(c1ncccc1CNc1nc(Nc2ccc3c(c2)CC(=O)N3)ncc1C(F)(F)F)S(C)(=O)=O + C[C@]1(c2nc3c(C(N)=O)cccc3[nH]2)CCCN1 [Veliparib] (first compound 0.08 µM, partner dose 1.4 µM)	88	92.3	62.7	96.5	76.9	85.2	104	93.2		
CS(=O)(=O)c1ccc(C(=O)Nc2ccc(Cl)c(-c3ccccn3)c2)c(Cl)c1 [vismodegib] + O=C(O)[C@@H]1[O][Sb](=[O])([O][Sb]2(=[O])[O][C@H]([C@H](O)CO)[C@H](O)[C@H](C(=O)O)[O]2)[O][C@H]([C@H](O)CO)[C@@H]1O [stibogluconate] (first compound 1 µM, partner dose 2 µM)	98.4	117	93	106	120	101	108	99.8		
CS(=O)(=O)c1ccc(C(=O)Nc2ccc(Cl)c(-c3ccccn3)c2)c(Cl)c1 [vismodegib] + Nc1nc(F)nc2c1ncn2[C@@H]1O[C@H](CO)[C@@H](O)[C@@H]1O [fludarabine] (first compound 1 µM, partner dose 0.2 µM)	107	37.2	101	99	85.7	12	17.3	87.5		
C=C(c1ccc(C(=O)O)cc1)c1cc2c(cc1C)C(C)(C)CCC2(C)C [Bexarotene] + C#Cc1cccc(Nc2ncnc3cc(OCCOC)c(OCCOC)cc23)c1 [erlotinib] (first compound 2 µM, partner dose 0.8 µM)	99.5	84.7	74.5	83.8	75.8	89.8	91.6	85.8		
CS(=O)(=O)c1ccc(C(=O)Nc2ccc(Cl)c(-c3ccccn3)c2)c(Cl)c1 [vismodegib] + CC(=O)O[C@@]12CO[C@@H]1C[C@H](O)[C@@]1(C)C(=O)[C@H](O)C3=C(C)[C@@H](OC(=O)[C@H](O)[C@@H](NC(=O)OC(C)(C)C)c4ccccc4)C[C@@](O)([C@@H](OC(=O)c4ccccc4)[C@H]21)C3(C)C [Docetaxel] (first compound 1 µM, partner dose 0.0001 µM)	49.5	63.1	37.1	95.3	75	52.9	29.9	56.3		
CS(=O)(=O)c1ccc(C(=O)Nc2ccc(Cl)c(-c3ccccn3)c2)c(Cl)c1 [vismodegib] + COCC[n+]1c2c(n(Cc3cnccn3)c1C)C(=O)c1ccccc1C2=O [YM155] (first compound 1 µM, partner dose 0.0004 µM)	1.4	86.4	61.7	87.5	89.2	99.9	69.8	102		
CS(=O)(=O)c1ccc(C(=O)Nc2ccc(Cl)c(-c3ccccn3)c2)c(Cl)c1 [vismodegib] + O=C(O)c1ccc2c(c1)nc(Nc1cccc(Cl)c1)c1ccncc12 [CX4945] (first compound 1 µM, partner dose 0.4 µM)	91.9	101	112	122	118	99.8	104	111		
CN(c1ncccc1CNc1nc(Nc2ccc3c(c2)CC(=O)N3)ncc1C(F)(F)F)S(C)(=O)=O + Cn1c(=O)n(-c2ccc(C(C)(C)C#N)cc2)c2c3cc(-c4cnc5ccccc5c4)ccc3ncc21 [NVP-BEZ235] (first compound 0.08 µM, partner dose 0.004 µM)	94.6	88.9	65.9	105	70.1	77.1	85.2	71.5		
CS(=O)(=O)c1ccc(C(=O)Nc2ccc(Cl)c(-c3ccccn3)c2)c(Cl)c1 [vismodegib] + C#Cc1cccc(Nc2ncnc3cc(OCCOC)c(OCCOC)cc23)c1 [erlotinib] (first compound 1 µM, partner dose 0.8 µM)	95.1	83.7	92.6	89.3	109	101	101	90.2		
